In the supplement of paper PMC3334620:
The full ranking holds about 33,000 sequences; the median of “E-score (-0.5 to 0.5)” is about -0.021, and the highest 2% start at about 0.32. The list shows a part of the results.

What follows are sequences tested against T1, Zap1 (UniProt P47043) (assay: PBM E-score (8-mer binding enrichment) (E-score (-0.5 to 0.5)); higher = stronger / more preferred TF binding; most listed sequences are background and not binding sites). Conditions: protein concentration: 200 nM; construct: GST-full length.
T1 sequence: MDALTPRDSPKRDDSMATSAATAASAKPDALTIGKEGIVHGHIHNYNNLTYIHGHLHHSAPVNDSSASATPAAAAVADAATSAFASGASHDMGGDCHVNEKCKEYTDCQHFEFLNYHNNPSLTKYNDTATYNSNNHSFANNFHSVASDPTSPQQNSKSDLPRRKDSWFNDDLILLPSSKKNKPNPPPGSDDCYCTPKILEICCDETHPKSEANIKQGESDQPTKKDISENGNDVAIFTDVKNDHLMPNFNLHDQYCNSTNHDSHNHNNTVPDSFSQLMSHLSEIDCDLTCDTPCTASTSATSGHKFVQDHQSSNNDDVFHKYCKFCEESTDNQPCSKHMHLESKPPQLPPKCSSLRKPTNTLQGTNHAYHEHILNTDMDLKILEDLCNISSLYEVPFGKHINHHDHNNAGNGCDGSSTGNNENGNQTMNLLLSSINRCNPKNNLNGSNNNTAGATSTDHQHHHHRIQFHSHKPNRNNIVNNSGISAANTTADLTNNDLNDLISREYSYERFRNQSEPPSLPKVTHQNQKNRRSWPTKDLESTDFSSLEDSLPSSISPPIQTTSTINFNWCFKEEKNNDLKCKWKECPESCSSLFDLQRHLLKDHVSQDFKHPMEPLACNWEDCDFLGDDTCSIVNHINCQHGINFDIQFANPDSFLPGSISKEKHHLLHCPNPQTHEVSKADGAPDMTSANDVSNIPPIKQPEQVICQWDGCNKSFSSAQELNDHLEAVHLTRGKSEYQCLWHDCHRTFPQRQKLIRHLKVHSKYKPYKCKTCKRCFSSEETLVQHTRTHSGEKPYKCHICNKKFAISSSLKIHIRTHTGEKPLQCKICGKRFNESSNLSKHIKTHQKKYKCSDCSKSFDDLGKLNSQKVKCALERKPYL
In short: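 E-scores (a modified Wilcoxon-Mann-Whitney statistic) were assigned by the Universal PBM Analysis Suite to every ungapped eight-base word pooled with its reverse complement. The input came from universal all-10-mer Agilent arrays made double-stranded by primer extension and probed with GST-tagged yeast transcription factors at about 100-200 nM. Fluorescent anti-GST detected bound protein, and masliner normalised the scans.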

Sequence | PBM E-score
CTTTGGAC | 0.203
CAAGCCTA | -0.188
ATTCTCGG | 0.0582
TCCCGAGA | -0.103
GCACAAGA | 0.0218
AGCTTTCG | -0.205
CAAGGTCC | 0.151
ACCAACGA | 0.0812
GTCACCAC | 0.218
TATCCCAA | 0.0555
ACGTTACG | 0.0601
GTAACCCA | 0.468
AGACTTAG | -0.306
ACGACACG | 0.031
ACTAAGAA | 0.0402
AGGAACAA | 0.00761
TACATTGA | -0.0148
AGTTCGGC | 0.0158
TATGAGGA | -0.191
CCCACTCA | -0.134
CATCGTAG | -0.237
CCTAGTTA | 0.194
ACGCTTAC | -0.151
GGACCAAA | 0.0834
ACGAGTCC | -0.0454

Sequence | PBM E-score
GGCCATAC | 0.0189
ATTGTAGC | -0.0857
CATATCAC | -0.057
AGGTATCA | 0.116
ATCTATCC | -0.046
GGTCTTGA | 0.11
CTGCTATC | 0.0299
CTGAGGAA | -0.0614
AGGGTTAA | 0.461
AATTCGGG | -0.0414
AAAGCCAG | -0.201
ACAGAATG | -0.139
ACATTTGC | -0.00108
AAAACGCA | 0.107
ACAACCCG | 0.398
GGCCGCTA | 0.0408
ATAGTATC | 0.0394
AATGGACC | 0.179
ACCTGATG | 0.201
AGCAAGTA | -0.0454
CATGACAA | -0.0635
GAGAATAC | 0.0319
CCCCGTCC | -0.323
AAGCCGCG | 0.0642
CCGCATGA | 0.114

Sequence | PBM E-score
ACGCCATA | -0.104
CCTCTAGC | -0.107
CAGCCAGG | -0.267
ATACCCAT | 0.128
CTTTGTAC | 0.0143
AACACGTG | 0.0559
GGTCTTAA | 0.148
ACTGCCAG | -0.0642
CTAGGCCA | -0.0744
TCTTGAAA | 0.295
TGACTTAA | 0.0206
ACACAAGC | 0.0416
CGAATCCC | -0.196
ACACTACT | 0.0202
AAATTCAA | 0.0186
CATCCTAA | 0.0763
GGCCAAAA | 0.139
AGATGCGG | 0.0772
CATAACAC | 0.19
CACCATAG | 0.132
CCAACCTA | 0.115
ACGACACC | 0.0752
CATGCAAA | -0.102
CATCTCAG | -0.08
CAGCTGCG | -0.251

Sequence | PBM E-score
ACCGTAGA | 0.0259
GTACTTCA | 0.215
ACGCGGAA | 0.061
AACCACCG | 0.227
CTATCGAA | -0.177
CATCATCA | -0.0606
GACATTTA | -0.148
AGCACTCA | -0.0177
CGTACACG | -0.0742
AAGGGCGG | 0.11
AAAGAAGA | -0.153
ACGGTGGC | -0.0481
CGTTGGAC | -0.17
CCGGTATC | 0.0178
AACGCAGG | -0.0973
ACCCGGTG | 0.195
ACGATGAA | 0.0365
CAAATGGC | -0.0735
CGACGAAA | 0.0374
AATTCCAT | -0.0827
CGGTCTGC | -0.00624
ATTGTCCC | 0.0063
GATAACCC | 0.47
GACTTGGA | -0.3
AACTTTAG | 0.116

Sequence | PBM E-score
AATACACG | -0.0282
AGCCCTCC | -0.18
CGAGGCGA | -0.0393
AGTTACGA | 0.226
CGACATGC | -0.133
AGGCGGAC | -0.157
GCTGAAGC | -0.138
CTCTCTTC | -0.249
AAGCTCAA | -0.127
AGCGAGCG | -0.109
GATATTAA | 0.0346
GATCTTAC | -0.146
CTTCAAGA | 0.186
GACACGTC | -0.278
AGGCTTCG | 0.021
ACGCTCCG | -0.196
GATCTTAA | 0.0896
GCACGCGC | -0.113
ACGAGATC | -0.172
ACTGGGCT | -0.162
GTTAAGGA | 0.191
AGTAATTG | 0.0247
CTTGCCTA | -0.167
AGACTGAC | -0.202
ATGTATAG | -0.101

Sequence | PBM E-score
AGTTCGTC | 0.0507
CACCGGCA | 0.0433
CTGCGTCA | -0.0274
CGCGTCCC | 0.00695
ATTGCCTA | -0.209
AGTGCCTA | -0.152
ACTGCGAG | -0.164
AATTTGGG | 0.146
ATCCCAAT | -0.0767
AGAGCGCA | -0.324
AACTCGAC | 0.0727
AGTCAATC | -0.07
AAGAGGGT | 0.213
ACAACTGT | 0.0855
CTAGCATC | -0.121
CGGGACGC | -0.133
AAGAGCTC | -0.272
ACCCGATC | 0.0875
CACCTAGG | -0.0336
AAGTGCAG | -0.156
CTCTCTAA | -0.191
CTGAGCCC | -0.179
ATCTCCTA | -0.257
AGGTCTCC | 0.00142
CAATAGAA | -0.187

Sequence | PBM E-score
ACTACACC | -0.0133
ACGTGCAC | -0.164
GCCTGAGC | -0.178
ACTACGGG | 0.0981
GTGGCAAA | 0.0924
ATGGGGGG | -0.045
GAGCATTA | -0.221
AGGAACGC | -0.189
CTTTCGGA | -0.121
CGCCTTCA | -0.26
AACTGGAA | 0.0221
CCGCTTGC | -0.121
CATCAATC | -0.0837
GAGGAACC | 0.108
AGTGTGTG | 0.0959
ATACAGCC | -0.0427
CACCCCGC | 0.237
AATATGGA | 0.035
ACGCACCT | -0.0346
ATGGACCG | 0.0558
CCATACCA | 0.0975
CTTGTGAC | 0.0651
